# Measured values as given in patent US9249147B2, “Tyrosine kinase inhibitors” (CHEMBRIDGE CORPORATION, priority 2008, dated 2016).
# Tests used:
# ROS = ROS (Homo sapiens, UniProt P08922); assay: Invitrogen SelectScreen Z-lyte kinase assay, Ros; type: biochemical; set-up: purchased Invitrogen (SelectScreen service); settings: 100 μM ATP
# Experimental: (§1) To evaluate selectivity versus other kinases, inhibition of various kinases by compound (II) was determined. In particular, IC50s for TrkA, Jak2, Axl tyrosine kinases were determined using ADP Hunter (DiscoverX) kinase assay. Single point profiling of compound (II) on 50 human tyrosine kinases and 10 Ser-Thr kinases was done at Upstate/Millipore by radiometric assay. […] The subset of the 520 kinases in the human kinome that were tested was strategically selected to cover most of the therapeutically relevant tyrosine kinases and to represent major branches of serine-threonine kinases.
# (§2) Compound (II) was a multitargeted tyrosine kinase (TK) inhibitor with a distinct pattern of inhibition focused on ALK, Trk family, Ros and Ret kinases. Invitrogen SelectScreen (Z-lyte assay) produced the following IC5O values for this set of kinases: ALK 9.75 nM, TrkA 1.5 nM, TrkB 1.4 nM, TrkC 1.8 nM, Ret 7.1 nM, Ros 1.8 nM (all measured at 100 μM ATP). […] About 70% of the 50 TKs tested have selectivity in excess of 50-fold for ALK and higher for Ret, Ros and Trk family members.
# TrkB = target: T1, TrkB (Homo sapiens, UniProt Q16620); assay: Invitrogen SelectScreen Z-lyte kinase assay, TrkB; type: biochemical; settings: 100 μM ATP
# T1 construct: purchased Invitrogen (SelectScreen service)
# Experimental: as §1, §2
# CYP3A4 = target: T2, CYP3A4 (Homo sapiens, UniProt P08684); assay: CYP3A4 Inhibition (recombinant, BFC substrate); type: in vitro ADME
# T2 construct: purchased Cerep (contract assay, ADMET Study 13170)
# TRKA = TRKA (Homo sapiens, UniProt P04629); assay: Invitrogen SelectScreen Z-lyte kinase assay, TrkA; type: biochemical; set-up: purchased Invitrogen (SelectScreen service); settings: 100 μM ATP
# Experimental: as §1, §2
# [1] = Partition Coefficient (Log D, n-octanol/PBS, pH 7.4); type: physicochemical; settings: 1.0E−04 M, read-out: Partition Coefficient Log D, Weighed Average of Three Replicates
# HepG2 = assay: Cytotoxicity panel in HepG2 (Cerep ADMET study 13170); type: cell-based, human; settings: HepG2, cumulative
# Experimental: (§3) In addition to the above proliferation inhibition experiments, compound (II) was tested for cytotoxicity at Cerep (ADMET study 13170) with human hepatocellular carcinoma cell line HepG2. Several cellular parameters, such as nuclear size, mitochondrial membrane potential, intracellular free calcium, membrane permeability and cell numbers were measured during this study to evaluate cytotoxicity at 0.5, 5 and 20 μM compound concentrations.
# (§4) Raw data will be expressed as % of effect (either inhibition or increase) relative to the untreated control cells. The data will also be normalized using the reference compound (cerivastatin), whose maximum effect will be considered “100% effect.” The reference compound will also be used to define the top and bottom of the dose-response curve, if one is calculated. […] The results include the following end points:
# (§5) Nuclear Size: expressed as % inhibition relative to control values.
# (§6) Mitochondrial Membrance Potential: expressed as % inhibition relative to control values.
# (§7) Intracellular Free Calcium: expressed as % increase relative to control values.
# (§8) Membrance permeability: expressed as % increase relative to control values.
# (§9) Cell Numbers: expressed as % inhibition relative to control values.
# [2] = as above; type: cell-based, human; settings: human, HepG2 cells; HepG2; estimate; read-out: Nonspecific cytotoxicity IC50
# Experimental: as §3, §4, §5, §6, §7, §8, §9
# hERG = hERG (Homo sapiens, UniProt Q12809); assay: hERG Qpatch 16 automated whole-cell patch clamp in CHO-K1 (Cerep hERG Study 13292); type: cell-based; settings: 2.5E−08 M (25 nM); CHO-K1, automated patch clamp
# Experimental: The cardiac potassium channel, hERG, is responsible for the rapid delayed rectifier current (IKr) in the human ventricle. Inhibition of IKr is the most common cause of cardiac action potential prolongation by noncardiac drugs. Increased action potential duration causes prolongation of the QT interval that has been associated with a dangerous ventricular arrhythmia, torsade de pointer.
# Compound (II) was initially tested at 1 μM concentration using a standard patch clamp protocol (Cerep ADMET Study 13170). The hERG channel was expressed in a human embryonic kidney (HEK293) cell line that lacks endogenous hERG channels. […] We have retested compound (II) in hERG assay in a range of lower concentrations to estimate IC50 of hERG inhibition more precisely (Qpatch 16 automated whole-cell patch clamp protocol in CHO-K1 cell line stably expressing hERG, Cerep hERG Study 13292). […] This kind of potency in hERG inhibition should not represent a significant clinical problem since the high degree of hERG inhibition would occur only at the compound concentrations above the expected therapeutic levels.
# CYP2C19 = target: T3, CYP2C19 (Homo sapiens, UniProt P33261); assay: CYP2C19 Inhibition (recombinant, CEC substrate); type: in vitro ADME
# T3 construct: purchased Cerep (contract assay, ADMET Study 13170)
# T3 sequence (P33261 whole entry): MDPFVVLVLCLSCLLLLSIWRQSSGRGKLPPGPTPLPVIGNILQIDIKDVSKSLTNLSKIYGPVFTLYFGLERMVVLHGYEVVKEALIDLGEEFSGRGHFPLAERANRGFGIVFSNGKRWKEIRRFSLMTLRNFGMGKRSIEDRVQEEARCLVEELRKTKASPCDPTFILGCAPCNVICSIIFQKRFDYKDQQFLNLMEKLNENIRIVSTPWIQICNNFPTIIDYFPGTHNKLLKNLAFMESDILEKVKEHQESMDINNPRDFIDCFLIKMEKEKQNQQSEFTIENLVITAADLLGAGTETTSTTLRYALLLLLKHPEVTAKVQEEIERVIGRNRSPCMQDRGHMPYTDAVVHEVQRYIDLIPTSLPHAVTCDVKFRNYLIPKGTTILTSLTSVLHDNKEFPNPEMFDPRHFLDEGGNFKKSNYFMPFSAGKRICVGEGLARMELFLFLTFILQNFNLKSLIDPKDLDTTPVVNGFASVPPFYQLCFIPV
# T2 sequence (P08684 whole entry): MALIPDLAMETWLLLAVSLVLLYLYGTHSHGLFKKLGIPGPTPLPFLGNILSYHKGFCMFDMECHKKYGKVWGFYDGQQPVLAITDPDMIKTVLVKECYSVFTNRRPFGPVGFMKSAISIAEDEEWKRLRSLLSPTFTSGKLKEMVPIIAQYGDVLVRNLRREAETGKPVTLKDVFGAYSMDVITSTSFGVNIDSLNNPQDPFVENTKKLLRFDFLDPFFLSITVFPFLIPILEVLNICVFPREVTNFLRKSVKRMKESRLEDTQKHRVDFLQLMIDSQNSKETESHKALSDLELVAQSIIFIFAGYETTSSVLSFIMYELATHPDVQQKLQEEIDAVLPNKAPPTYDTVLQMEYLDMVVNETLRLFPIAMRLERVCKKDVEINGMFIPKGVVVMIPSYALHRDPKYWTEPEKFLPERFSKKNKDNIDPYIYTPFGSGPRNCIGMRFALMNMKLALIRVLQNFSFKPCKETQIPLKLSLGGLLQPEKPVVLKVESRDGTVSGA
# UniProt Q12809, sequence (Q12809 whole entry): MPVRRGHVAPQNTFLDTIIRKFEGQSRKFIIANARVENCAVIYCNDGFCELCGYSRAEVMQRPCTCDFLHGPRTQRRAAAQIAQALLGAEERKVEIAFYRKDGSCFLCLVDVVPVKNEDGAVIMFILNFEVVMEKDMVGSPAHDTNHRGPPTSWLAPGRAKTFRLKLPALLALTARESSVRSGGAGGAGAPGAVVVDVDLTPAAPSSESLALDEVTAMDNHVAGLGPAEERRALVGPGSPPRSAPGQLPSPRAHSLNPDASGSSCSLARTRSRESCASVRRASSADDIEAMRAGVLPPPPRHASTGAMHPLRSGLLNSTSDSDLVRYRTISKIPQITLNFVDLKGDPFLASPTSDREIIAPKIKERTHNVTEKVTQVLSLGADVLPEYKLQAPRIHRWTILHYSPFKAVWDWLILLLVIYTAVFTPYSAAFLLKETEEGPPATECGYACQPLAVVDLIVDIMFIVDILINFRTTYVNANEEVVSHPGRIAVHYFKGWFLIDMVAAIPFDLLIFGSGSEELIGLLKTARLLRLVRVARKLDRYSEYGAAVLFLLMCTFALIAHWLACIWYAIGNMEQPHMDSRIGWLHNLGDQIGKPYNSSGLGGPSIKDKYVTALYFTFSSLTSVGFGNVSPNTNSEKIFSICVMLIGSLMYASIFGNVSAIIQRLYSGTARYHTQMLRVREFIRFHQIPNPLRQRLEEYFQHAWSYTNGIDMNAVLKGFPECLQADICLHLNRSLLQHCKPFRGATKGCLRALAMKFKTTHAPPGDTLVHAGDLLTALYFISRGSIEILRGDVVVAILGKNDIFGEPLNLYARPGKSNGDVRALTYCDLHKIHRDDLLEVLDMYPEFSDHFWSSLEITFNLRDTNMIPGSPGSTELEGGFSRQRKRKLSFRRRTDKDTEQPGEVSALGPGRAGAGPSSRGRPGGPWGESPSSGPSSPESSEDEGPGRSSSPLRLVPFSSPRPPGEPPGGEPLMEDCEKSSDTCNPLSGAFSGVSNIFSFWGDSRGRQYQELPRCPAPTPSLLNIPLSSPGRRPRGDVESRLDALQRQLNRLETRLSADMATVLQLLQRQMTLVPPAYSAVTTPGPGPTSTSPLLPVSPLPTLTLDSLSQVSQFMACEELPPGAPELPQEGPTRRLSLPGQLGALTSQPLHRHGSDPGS
smiles,measurement,setting,value
Cc1ccc(F)cc1C[C@H](C)Nc1cc[nH]c(=O)c1-c1nc2cc3c(cc2[nH]1)C(=O)N(CCN1CCCC1)C3 [compound (II)],IC50,ROS,1.8 nM
same,IC50,TrkB,1.4 nM
same,inhibition at 1 µM,"CYP3A4; human, recombinant CYP3A4, probe BFC, 1.0E−06 M, read-out: CYP3A4 % Inhibition of Control Values",46%
same,inhibition at 5 µM,"CYP3A4; human, recombinant CYP3A4, probe BFC, 5.0E−06 M, read-out: CYP3A4 % Inhibition of Control Values",95%
same,IC50,CYP3A4; read-out: approximate IC50 CYP3A4,~1000 nM
same,IC50,TRKA,1.5 nM
same,logD,[1],3.63
same,Cytotoxicity panel overall result,HepG2,cytotoxic and pro-apoptotic
same,IC50,[2],2000 to 3000 nM
same,% Inhibition of Tail current (mean),hERG,22.5%
same,inhibition at 1 µM,"CYP2C19; human, recombinant CYP2C19, probe CEC, 1.0E−06 M, read-out: CYP2C19 % Inhibition of Control Values",80%
same,inhibition at 5 µM,"CYP2C19; human, recombinant CYP2C19, probe CEC, 5.0E−06 M, read-out: CYP2C19 % Inhibition of Control Values",90%
same,approximate IC50 CYP2C19,CYP2C19; suggested by % inhibition at 1 and 5 μM,triple-digit nM
